Measurements published in the supplement of paper PMC3334620.
In all, about 33,000 sequences were measured (“E-score (-0.5 to 0.5)”: median about -0.054, highest 2% from about 0.35 on). The list shows a part of the results.

target: T1, Stb5 (UniProt P38699); assay: PBM E-score (8-mer binding enrichment) (E-score (-0.5 to 0.5)); higher = stronger / more preferred TF binding; most listed sequences are background and not binding sites; conditions: protein concentration: 200 nM; construct: GST-full length
T1 sequence: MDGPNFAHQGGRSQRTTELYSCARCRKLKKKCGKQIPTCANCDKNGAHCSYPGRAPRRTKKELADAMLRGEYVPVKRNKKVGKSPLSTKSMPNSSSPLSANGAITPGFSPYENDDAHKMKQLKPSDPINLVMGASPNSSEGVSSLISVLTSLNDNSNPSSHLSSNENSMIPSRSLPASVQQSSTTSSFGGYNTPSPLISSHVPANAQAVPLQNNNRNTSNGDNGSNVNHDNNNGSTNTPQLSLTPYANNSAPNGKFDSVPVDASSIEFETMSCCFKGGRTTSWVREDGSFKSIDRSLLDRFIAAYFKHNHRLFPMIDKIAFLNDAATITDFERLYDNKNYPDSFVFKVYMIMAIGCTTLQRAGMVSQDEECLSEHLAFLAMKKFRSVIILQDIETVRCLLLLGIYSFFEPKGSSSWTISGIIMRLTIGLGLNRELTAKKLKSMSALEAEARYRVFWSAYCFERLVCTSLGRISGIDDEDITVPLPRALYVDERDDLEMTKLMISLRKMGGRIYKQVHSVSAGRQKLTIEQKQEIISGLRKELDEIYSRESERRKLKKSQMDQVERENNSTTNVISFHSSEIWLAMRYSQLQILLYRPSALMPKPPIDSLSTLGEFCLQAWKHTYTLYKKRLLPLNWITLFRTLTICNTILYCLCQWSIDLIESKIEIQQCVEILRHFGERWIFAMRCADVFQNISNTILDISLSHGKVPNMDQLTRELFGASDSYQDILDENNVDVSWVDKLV
Outline: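 Bound GST-tagged yeast transcription factors, applied at about 100-200 nM to double-stranded universal all-10-mer Agilent arrays, were detected with fluorescent anti-GST. Scans were normalised with masliner. A modified Wilcoxon-Mann-Whitney statistic, the E-score, was assigned to each ungapped eight-base word pooled with its reverse complement by the Universal PBM Analysis Suite.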

Row | Sequence | PBM E-score
1 | GCATCCAA | -0.17
2 | CGACTACC | -0.0429
3 | ATGCGACC | 0.0704
4 | CTTGTTAC | -0.139
5 | ATGGTTAA | 0.0257
6 | AAGGCCTT | -0.163
7 | ACTCCTGC | 0.00247
8 | AAGCAGAG | -0.371
9 | ACGCGACA | 0.00921
10 | GCACTTTA | 0.0458
11 | ATCTCGGG | 0.0823
12 | GCAGACCA | -0.0212
13 | CATCTTAG | -0.16
14 | ATCGATAG | -0.138
15 | GTTTACCA | -0.153
16 | GAATAAAC | -0.00654
17 | AGCGTCCC | -0.123
18 | ATGCCAAT | -0.171
19 | GTAGGGGA | -0.115
20 | ATCACCTC | 0.0381
21 | ACGCGACT | 0.0289
22 | GCGTGGTA | -0.04
23 | ACGAGGAA | -0.12
24 | CCGACGAG | 0.321
25 | CGGGGCAG | 0.0716

Row | Sequence | PBM E-score
26 | CTGGAGGA | -0.159
27 | CTTGAATC | -0.128
28 | TCATAGCA | -0.108
29 | GAGAACTA | -0.0787
30 | CACCCAAG | 0.0763
31 | CAAGATCC | 0.0549
32 | TACCCCCA | -0.114
33 | CGTGCTGA | -0.246
34 | AGCCTTAC | -0.165
35 | GCCGGGAA | 0.209
36 | AAACGACG | -0.12
37 | AACCTAGG | -0.107
38 | GATCCTGA | -0.0421
39 | CCGAGGGC | 0.149
40 | CAGCATCC | -0.0392
41 | GAGGTAGC | -0.0137
42 | CGGTCACA | 0.288
43 | AATAGTGT | 0.136
44 | ACAAAACG | 0.0772
45 | ACCGGTCC | 0.305
46 | GACTAACA | -0.0382
47 | CCTCTGTA | -0.0546
48 | AGCAGACC | -0.218
49 | AAGTCGTG | -0.195
50 | GCCAACAA | -0.212

Row | Sequence | PBM E-score
51 | GGAGGGGA | -0.0609
52 | CCAGCAAG | -0.224
53 | TGCGGTAA | 0.278
54 | CCTATGCC | -0.122
55 | CACGGCCA | 0.181
56 | CGTGGGTA | 0.00915
57 | CTTGTCAC | -0.146
58 | AGATGTGG | -0.184
59 | AGCATGAC | -0.172
60 | CTGAGTCC | 0.104
61 | GCAAGTAC | -0.0806
62 | AATCGATC | -0.158
63 | GAAAGGGC | -0.0247
64 | AAGACAAG | -0.0293
65 | TTCTCCAA | -0.0481
66 | GCAAGGCC | 0.0215
67 | CGCTAACG | 0.203
68 | ATATCCAA | -0.208
69 | CCTAAACA | -0.0206
70 | AATTGTTC | -0.101
71 | TAGTCTAA | -0.0967
72 | CCGAGCGC | 0.185
73 | TGCCTTAA | -0.192
74 | CTACTACC | 0.216
75 | ACACGTAA | -0.104

Row | Sequence | PBM E-score
76 | GGTTAAAA | 0.113
77 | AACCCGCC | 0.276
78 | GTGATGTA | 0.0144
79 | GGGAGACC | -0.126
80 | GTACAGAA | -0.0755
81 | CTCACGCC | 0.0191
82 | CACACTGA | -0.266
83 | GTCGCCCA | -0.158
84 | ATATAGGG | 0.118
85 | GCACTCGA | -0.0488
86 | ACTTATTA | -0.0696
87 | CATAAGCG | 0.0871
88 | ACCAGTTC | -0.0439
89 | CCTTGGCG | 0.0694
90 | CGAATAGA | -0.147
91 | GAGCTTAA | -0.143
92 | CCGGTACG | 0.211
93 | CTTCCACC | -0.0458
94 | AGGAGTAA | 0.00706
95 | AAGTTGGC | -0.165
96 | ATCAGGGA | -0.264
97 | GCTGTTCC | -0.0799
98 | ATGCTATG | -0.0998
99 | CCGGAGAA | 0.267
100 | ATCTAGTA | -0.294

Row | Sequence | PBM E-score
101 | GTCCGTAA | 0.264
102 | GCCATCCA | -0.138
103 | CGTGTGAC | -0.0314
104 | GATTCGTA | 0.076
105 | AACAACCC | 0.0448
106 | CTGTCCTA | -0.166
107 | ATTCGTGC | 0.0377
108 | AATTCTGG | -0.172
109 | CATCGAAG | -0.0935
110 | CGATTGCA | -0.0032
111 | ACTCTAAG | 0.0244
112 | CCCCTTAG | -0.0287
113 | ACTAGTCG | 0.00798
114 | TGATAGAA | -0.156
115 | AATGTTGA | -0.149
116 | GATTCTTA | 0.0462
117 | AAAGGCTT | -0.156
118 | AAGTGCTG | -0.337
119 | CGCTATCC | 0.0597
120 | AGGTCTAC | -0.231
121 | GTATATTA | -0.0407
122 | ACTCATTC | 0.0349
123 | TCTCCAAA | -0.197
124 | CCGTTCTA | 0.232
125 | CGCATCAG | 0.214

Row | Sequence | PBM E-score
126 | CCGCAACA | 0.245
127 | ACGGGTCG | 0.203
128 | ATATCACC | 0.436
129 | TGAAGGAA | -0.318
130 | CGCGCCAA | 0.0894
131 | ATTTAATG | 0.178
132 | AGAGCCGC | 0.287
133 | ACGAAGCT | -0.126
134 | ACATTGGA | -0.105
135 | ATGTAGCC | -0.0209
136 | CCGGTTAC | 0.261
137 | ATCAACCA | -0.105
138 | CCGAGCCG | 0.207
139 | ATGATCAA | -0.267
140 | GGTCCTAC | 0.0984
141 | TATTGAAA | -0.0523
142 | GCTGATCA | -0.00416
143 | ATTGCCCG | 0.154
144 | ATTCTTGA | -0.0618
145 | CATGGCAG | -0.135
146 | AGCGCTGA | 0.102
147 | GCGCCCAC | -0.0168
148 | AGAGGGCA | -0.221
149 | ACGAAACT | -0.0523
150 | CGCAGCGC | 0.101

Row | Sequence | PBM E-score
151 | ATTCGTCC | 0.122
152 | ATATACGA | -0.181
153 | ACATGTCT | 0.108
154 | ATAGCGAC | 0.0524
155 | AAAGTGAG | -0.227
156 | AAGCAACG | -0.00766
157 | ATGACTGA | -0.0871
158 | GAACCGCA | 0.106
159 | AACCTAGA | -0.091
160 | AATGCTAC | -0.138
161 | CTAGTGGA | -0.00518
162 | GTCTCTTA | 0.00152
163 | CGCATTCA | 0.0783
164 | ACCCAATA | -0.156
165 | CAACACAA | -0.226
166 | ATAACATG | -0.0711
167 | AGCGCTGC | 0.0385
168 | TGGGGTAA | 0.163
169 | AATGGGCT | -0.324
170 | GCGCGGCC | 0.268
171 | CATGCGCA | -0.217
172 | ACGCCCTG | -0.0686
